# Test results reported in article PMC10668032.
# The other results are listed elsewhere or left out. At the low end of the ranking the order means little.
# Biological target: SIX1-Q177R homeodomain (UniProt Q15475)
# Assay: universal protein binding microarray
# Conditions: Universal all-10-mer PBM (8x60K, AMADID 030236), 300 nM GST-tagged protein, Alexa Fluor 488 anti-GST; buffer, salt, pH and temperature not stated; high values mean tight binding; most listed sequences are background and not binding sites; double strand, one strand shown
row,Sequence,binding signal [E-score]
1,GTGCGTGA,0.163
2,CTTTGACA,0.219
3,CATCTCGA,0.0477
4,CGAAAGTA,-0.106
5,AGTTCTGG,-0.0199
6,GACAAGAA,-0.036
7,CAAGTCGG,-0.0253
8,TCCCATAA,0.0199
9,AGGGCCTG,-0.185
10,GGTAAACA,0.188
11,ACGAGATG,-0.00357
12,ATGTATGG,-0.153
13,CAAAAACG,-0.0326
14,AGTCTTGA,-0.192
15,CGTGCTGA,0.0502
16,GTAGTGCA,0.105
17,ACACTCCT,0.391
18,AGGAATAA,-0.0131
19,ATTAGGAC,-0.242
20,CATCGCTA,-0.116
21,CGTATAGA,-0.135
22,GCTTTTCC,-0.232
23,GTAGGTGA,0.0838
24,CCGACAGA,-0.0246
25,ACCTGCCC,0.143

row,Sequence,binding signal [E-score]
1,CTCCATCA,0.106
2,CGCTACAG,-0.145
3,ACGGCCAT,-0.163
4,ACATCGCT,-0.258
5,GACATATA,-0.143
6,CCTTAAGG,0.0537
7,ACCTTCCT,0.264
8,CGCAGAGC,-0.153
9,TCATTAGA,0.0173
10,CGTCGGAC,-0.0258
11,ATCTTAGG,-0.0398
12,GAAGCACC,0.238
13,AGTTCACG,-0.186
14,ATCCTCGA,-0.0809
15,AGGGTTAC,0.162
16,ACGTAGAC,-0.00903
17,CAAAAGCC,-0.353
18,GCTCACTA,-0.0167
19,AGGCCACG,-0.159
20,AAAAGAGG,-0.155
21,GACTGCAC,0.0183
22,AGAAAGCG,-0.0958
23,CCAATAAG,-0.18
24,CGCAAACA,0.181
25,AAGCGGCC,-0.263

row,Sequence,binding signal [E-score]
1,CATTCCCG,-0.0983
2,AAACCGTA,0.0896
3,ACATATCT,-0.18
4,GTTGACGA,0.0727
5,ACAATGAT,-0.0568
6,AAAGACCA,-0.217
7,AAATGGGC,-0.207
8,GCCAACCC,0.0805
9,AAAGACGG,-0.0974
10,GACCGGCC,-0.11
11,CCACTTAA,-0.247
12,GAGATTAC,-0.103
13,CGCAAGGC,-0.11
14,CGTTTCCA,-0.21
15,GTATACCA,0.152
16,ATTTCTGA,-0.0825
17,GTGGAGAA,-0.18
18,AAACACCT,0.419
19,CAGTGCTA,0.129
20,AGCGTCCA,-0.103
21,AAGCCGTA,-0.165
22,CTTTTTCA,-0.149
23,CTACTATC,0.0918
24,TCCTTCGA,-0.151
25,CACATTGG,-0.0582

row,Sequence,binding signal [E-score]
1,AGGCGAAT,-0.207
2,CGATAGGA,0.0251
3,ATAGGAGC,-0.129
4,GATGAGTA,-0.0112
5,AGTTGAAG,-0.0278
6,ACAGTTCG,-0.046
7,AATTACAC,0.433
8,ACGACGGG,0.0939
9,CTAATTAC,-0.172
10,GTTGCAAC,0.102
11,CGCGCTCA,-0.125
12,ACAGTCAG,-0.0451
13,AACGCAAT,-0.139
14,AGAGATTG,-0.232
15,CGGTGTGA,0.434
16,AGAAGGAT,0.000365
17,CAAATCTC,-0.359
18,ATATTCCC,-0.152
19,ATTTATTC,-0.237
20,CCTGCTCA,0.0706
21,GTTTTGCA,-0.0348
22,GTCGCCAC,-0.127
23,CGGCCGAC,-0.09
24,ACCGGACC,0.0277
25,TCGACAGA,-0.21

row,Sequence,binding signal [E-score]
1,ATTAAGGG,-0.045
2,ACCGGGAG,0.00208
3,GCTTACAA,-0.0776
4,AGATATCT,-0.0671
5,GGAACTTA,-0.137
6,CACATAAC,0.138
7,ACTTTTCT,-0.0979
8,GAGCCAGC,-0.00754
9,CACATGTC,-0.148
10,AGAACACG,0.356
11,CTTCTTTC,-0.0776
12,TACAATAA,-0.167
13,ACAATTTG,-0.119
14,GAGTGTAC,0.419
15,ATTAGGTG,0.296
16,GGGTCTTA,0.102
17,AAATTAAT,-0.168
18,ACACACAG,0.269
19,TGACAACA,0.0303
20,GGAAAAAA,-0.0639
21,AACAAAAA,-0.178
22,CATAGAGG,0.064
23,AACCGACG,-0.024
24,GATAATAA,-0.0888
25,CACTGTCG,0.0527

row,Sequence,binding signal [E-score]
1,CACAATAA,-0.104
2,CAGGTTAG,-0.0344
3,CCACCCCG,0.246
4,ACGACCGT,0.0408
5,CGCTGCTA,-0.037
6,AGCATCTG,-0.152
7,ATGAGTAG,-0.128
8,CGGTTACG,0.0204
9,ACACTAAT,0.333
10,ATTGTCCC,-0.0722
11,CATATGCC,-0.0832
12,AGAGGATG,-0.173
13,CGACCGAC,-0.033
14,GTGTTGGA,0.414
15,CCAGCTTC,-0.218
16,CATGCGAG,-0.0083
17,GTACGATA,0.0992
18,ATTAGTTA,-0.191
19,GCAGCCAA,-0.136
20,AATGCCTA,-0.0522
21,CATTGCAC,0.15
22,GTGCATAA,0.0897
23,AATATTGC,-0.0771
24,GCCCCGAC,0.0584
25,AATTGAAG,-0.00216

row,Sequence,binding signal [E-score]
1,ACAGCCCA,-0.305
2,ATCAGTCA,-0.129
3,AAAGAGTT,-0.00821
4,CCTAGTAC,0.0682
5,CGCTGCAA,-0.188
6,CTACGGGC,0.0516
7,CTTTGAAA,-0.179
8,TAAAGGAA,-0.0795
9,CAGTGCAG,0.0257
10,AACCATTG,-0.208
11,AGGTAGCG,-0.0073
12,GGGGTGCA,0.273
13,AAACCAAG,-0.0489
14,CAGACCCC,0.215
15,CCTAACGC,-0.0174
16,CGGCCGCA,-0.139
17,GAAAATGA,0.000835
18,CAAAAAGA,-0.183
19,ACCGGCGC,-0.0622
20,CTACCTGC,-0.00962
21,GCTCGAGA,-0.152
22,AACACCGG,0.483
23,CATAACCC,0.107
24,ATCACCTA,0.0265
25,AACCTTAT,-0.221

row,Sequence,binding signal [E-score]
1,AACGGGAA,-0.278
2,GATACCGA,0.214
3,AAAGAGGC,-0.215
4,AAGATTCA,-0.125
5,ATCGTAGC,-0.0478
6,ATAGATGC,-0.28
7,CTTAACCC,0.143
8,CCAGGGTA,0.243
9,CGTTGTGA,-0.11
10,CTGCGAAC,-0.215
11,CCTGAGCG,-0.00173
12,ATAGTACG,0.0466
13,CTAGCCAC,-0.113
14,AGTGATGG,0.0177
15,TCTTGCCA,-0.0706
16,TTCACCAA,-0.294
17,CTGGTCTA,-0.136
18,CCATCTAA,-0.0433
19,ATCTGTAC,0.0105
20,CTATCCGA,0.0246
21,CACAAACC,-0.00515
22,TCATCTCA,-0.0657
23,CATAAGGG,0.0507
24,ACGGGCCT,-0.0595
25,GGTCAGAA,-0.069

row,Sequence,binding signal [E-score]
1,AGCATAGA,-0.0833
2,AATAGATC,-0.157
3,CCATGTCG,0.0404
4,CGCCTAGC,0.0945
5,AATTATGA,-0.0814
6,AATCCCCC,0.0107
7,ATCGTTTA,-0.209
8,ACGTCAGG,-0.0395
9,ACCGCCTA,0.119
10,AGGTGGTA,0.13
11,TGCATGCA,0.0224
12,AGTGCATC,-0.193
13,ATACACCG,0.472
14,CGGGTTAG,0.127
15,AAGTAAGC,-0.0488
16,AACGCAGA,-0.116
17,CGAACTCC,0.132
18,AGAGCCGG,-0.158
19,GGGTGATA,0.218
20,TGCAGAAA,-0.135
21,ATCACTGC,0.0942
22,AGTATCCG,0.167
23,CACTAACG,0.2
24,CTTAAGCA,-0.13
25,AGAGCTGA,-0.198

row,Sequence,binding signal [E-score]
1,CGAATCAG,-0.198
2,TACCTCTA,-0.0328
3,ATTGTTAA,-0.14
4,AGAAGTCC,-0.317
5,CCTCCGCC,0.0752
6,CAGCCTGC,-0.015
7,ACGGGCAC,0.0609
8,CGCTCTCA,-0.178
9,AACTATTC,-0.144
10,ATCTGTGG,-0.116
11,CAGGGGAC,-0.00816
12,GTAACCAA,-0.00116
13,AACCTACT,0.051
14,GTTTAAAC,0.344
15,ACCTTACA,0.192
16,ATTTTTAA,-0.192
17,AGCCAGCC,-0.179
18,GGATCGGA,0.00024
19,CTACGAGA,-0.168
20,AGCTTGTC,-0.208
21,CTTAGCCA,-0.119
22,ATCTAACA,0.0933
23,CCGCTGAC,0.0373
24,GACTATAA,-0.101
25,CCTCCCAG,0.11

row,Sequence,binding signal [E-score]
1,CGGGTGAC,0.0886
2,AGCCCGCA,-0.0273
3,ATATATTA,-0.124
4,CCGCCTGC,0.0146
5,CGCGATAA,-0.258
6,ACGCATAT,-0.00685
7,CATGAACG,-0.0505
8,CGTCGTGA,-0.155
9,AGAGAGAT,-0.13
10,AACTCTCG,-0.117
11,AGCAGTAG,-0.18
12,AACCGGCA,-0.187
13,CAATGTCC,-0.247
14,ATGGAAGC,-0.281
15,CAGCGTAA,-0.065
16,GATGTGAC,-0.0984
17,GTAACAAA,-0.184
18,GTCCCAAC,-0.0172
19,CAGGACGC,-0.0546
20,ACTTTATC,-0.119
21,AGTCGAAA,0.0186
22,AATTTGGC,-0.347
23,GAGCATTA,-0.164
24,CGCCGGCC,-0.0608
25,AGATGGTG,0.273

row,Sequence,binding signal [E-score]
1,ATGCACCG,0.117
2,ATTTTTCA,-0.239
3,ATTCAGCC,-0.103
4,AGGACGGG,0.0231
5,TACCTCGA,0.098
6,AGGCCGTG,0.0698
7,GCAGATAC,0.12
8,CCTACATA,-0.0752
9,ACCTGCTG,-0.0675
10,AGGGACAA,-0.25
11,GGTTCGGA,0.0871
12,ATGCCGTC,-0.0629
13,AAACGTTG,-0.27
14,CACCGTCC,0.276
15,CTGTTACC,-0.0154
16,ATCATTTC,-0.205
17,CCAGCAGC,-0.0473
18,CATTTATC,-0.306
19,CTGAACAC,0.422
20,GGACAGAA,-0.24
21,CCACTCAG,0.106
22,CTGTGCGA,-0.222
23,GGTATGTA,0.222
24,GCAACGAA,-0.201
25,TAGACAGA,-0.263

row,Sequence,binding signal [E-score]
1,ACGAAACC,-0.0585
2,ACAATCTC,-0.142
3,ACCCAGCT,0.0773
4,CTACAGGC,-0.202
5,GAGAGTCA,0.0452
6,AATTGCGC,-0.0634
7,ACGGAGCG,-0.000245
8,ACTAGCGA,-0.136
9,GTCAGCTA,-0.0689
10,AGCTTGGA,-0.316
11,GCCTGCAA,-0.201
12,AGGAGGGG,0.111
13,ATCGGCAT,-0.194
14,TCGGCTAA,-0.213
15,CTCCCCGC,0.168
16,ACTACCCA,0.105
17,CGTCAACG,-0.0236
18,AGCACGCC,0.0699
19,CTGCGTTC,-0.215
20,CATAATAC,-0.0523
21,CCTGCCAC,-0.00817
22,CCTCCGGC,-0.0745
23,TAAATACA,0.129
24,GCGGTGAC,0.00363
25,ACTGCAAT,-0.0602

row,Sequence,binding signal [E-score]
1,CCAGTCCG,-0.224
2,CAACGCGG,0.0978
3,CCCTCAGA,0.0322
4,ACCCCACA,0.267
5,CACCTTCG,0.315
6,CAAGAATA,-0.129
7,CCGCTAAG,-0.0137
8,CTTACGCA,-0.136
9,AAGCCGGT,-0.0766
10,AGCAGACA,0.0995
11,GAGTTGCC,0.0854
12,GGAGTTAA,0.266
13,AATGTGTA,0.078
14,CCTAATGA,-0.126
15,CTACAGGA,0.0365
16,CTGTATCA,-0.195
17,AATAGTCC,-0.155
18,ATGCGGCC,-0.0153
19,ACGGTGGG,0.0981
